Results on 110 sequences are retold here after the supplement of paper PMC3334620.

Over roughly 33,000 sequences, “E-score (-0.5 to 0.5)” has its median near -0.012; the highest 2% begin near 0.27. Some of the results follow.

The test has as its target T1, Vhr1 (UniProt P40522).
T1 sequence: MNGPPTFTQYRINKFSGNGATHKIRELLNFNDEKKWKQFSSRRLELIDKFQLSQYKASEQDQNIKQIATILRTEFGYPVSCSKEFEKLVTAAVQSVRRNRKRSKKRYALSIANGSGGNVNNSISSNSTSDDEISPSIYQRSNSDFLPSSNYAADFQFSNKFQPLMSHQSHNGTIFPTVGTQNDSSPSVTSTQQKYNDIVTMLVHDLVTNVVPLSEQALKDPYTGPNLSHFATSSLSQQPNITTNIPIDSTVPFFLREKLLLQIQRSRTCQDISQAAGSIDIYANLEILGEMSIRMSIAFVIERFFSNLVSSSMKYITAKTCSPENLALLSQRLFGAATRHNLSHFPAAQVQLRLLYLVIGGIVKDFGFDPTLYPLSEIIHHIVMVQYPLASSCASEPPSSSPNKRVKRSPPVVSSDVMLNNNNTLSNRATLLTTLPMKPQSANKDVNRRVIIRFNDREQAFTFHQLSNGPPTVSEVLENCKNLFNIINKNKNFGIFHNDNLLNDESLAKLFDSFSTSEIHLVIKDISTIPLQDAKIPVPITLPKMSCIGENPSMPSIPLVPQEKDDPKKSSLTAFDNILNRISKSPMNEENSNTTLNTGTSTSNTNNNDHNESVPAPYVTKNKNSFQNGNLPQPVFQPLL
In words: PBM E-score (8-mer binding enrichment) (E-score (-0.5 to 0.5)); higher = stronger / more preferred TF binding; most listed sequences are background and not binding sites. The conditions noted are these: protein concentration: 200 nM; construct: GST-full length. Here is the method:
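Universal 'all 10-mer' protein binding microarrays (Agilent AMADID 015681) probed with GST-tagged S. cerevisiae TFs (full-length or DBD) made by in vitro transcription/translation (PURExpress), about 100-200 nM. Bound TF was detected with fluorescent anti-GST. Each ungapped 8-mer (which stands for itself and its reverse complement) is scored by the PBM enrichment score (E-score), a modified Wilcoxon-Mann-Whitney statistic from -0.5 to +0.5, computed with the Universal PBM Analysis Suite. Scale: above 0.35 generally sequence-specific binding.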
Regarding AAGATCGT, the “PBM E-score” value was -0.0977. With CTTTTTAC the figure was -0.164; with CACTGCAC, 0.133.

AGTTCTTG: the “PBM E-score” value is -0.15. For TGCACAAA the value was -0.165; for AGCCATAC, 0.152.

Regarding CCCGGATC, the “PBM E-score” value turned out to be 0.145. With CAGGGTCG the figure was 0.025; with CTCTTTTA, -0.222; with AAAGATCC, -0.0874. With AGGTTCCG the figure was -0.0637; with GATGTTGC, -0.0728. For ACAGACTC the value was 0.164; for GCTGCCAA, -0.0372; for ATATGGCA, 0.0772. Regarding CACCCACG, the “PBM E-score” value came to 0.249. In the case of ACCAGTTA, the “PBM E-score” value came to 0.0649. With CGCTGTCA the figure was -0.0245; with AATCCTCG, 0.0459.

For the sequence AGTGTCTC, the “PBM E-score” value stood at 0.00473. With CCGTTTAA the figure was -0.126; with GTGTGTGA, 0.298; with ATGGCAAC, -0.00238. With GAATGGTA the figure was -0.0351; with AAATCGTA, 0.0863; with GTTCTTCA, -0.123. With CACACAGG the figure was 0.272. Turning to GGGTTAAC, the “PBM E-score” value is -0.0119. For AGCAAACA the value was 0.0181; for CAGCGTCA, -0.116; for CCAGGTCA, -0.187. With CATTGAGA the figure was 0.0157; with GGATTCCC, -0.154. For CGTTCAAA the value was -0.198; for CATTGCGA, 0.0667. As to AGTTCCTG, the “PBM E-score” value is -0.252.

For TGGCTCAA, the “PBM E-score” value stood at 0.0366. For the sequence AATCTGAT, the “PBM E-score” value worked out at 0.0984. For CCTCTTAC the value was -0.215. With CCAAAGCA the figure was 0.125; with AATTACCC, -0.0719. Take CCAGAACC: the “PBM E-score” value is -0.0247. With CAGAATGA the figure was 0.0955; with GAAATGAA, 0.101; with AACCATTG, -0.0562.

For the sequence ATCCTTGC, the “PBM E-score” value was -0.112. With ACTACCTA the figure was 0.0258; with CCCTAGCA, -0.0457. With GCTCTGCC the figure was -0.205; with CGACGAAG, -0.0239. For CTATAGAC the value was -0.115; for GTGTAGAA, -0.00458; for AGCTTGGG, -0.0403. As to GGTTTGCA, the “PBM E-score” value came to 0.0676. For CGTGGAAG the value was -0.0406. For CGCCTTAA the value was 0.0587; for GGGGGACA, 0.0626; for CATTCACG, -0.114. For GGTGTGGA the value was 0.181; for GGACCTAA, -0.118.

ATCACTTC: the “PBM E-score” value turned out to be 0.158. For AGACCCTC the value was -0.259. With CCCTTAAC the figure was -0.168; with ATATAATA, 0.144; with GGGTAACA, 0.099. For CACGCGTC the value was 0.275.

In the case of CGCCATGC, the “PBM E-score” value was 0.0189. For the sequence CGCCGTGA, the “PBM E-score” value is 0.193.

For the sequence CACGGGGC, the “PBM E-score” value is -0.00164. With AGAGGTCA the figure was -0.0353. Take CTTTTGTA: the “PBM E-score” value was 0.012. As to AGCGAGAC, the “PBM E-score” value is -0.0329.

Consider CTCATGCC, for which the “PBM E-score” value is -0.0244. For ACGACGGG the value was -0.0612; for GTGGTGAA, -0.0322. With TGCAACCA the figure was 0.19; with CCTGGACA, -0.199.

Consider CCTAGTAC, for which the “PBM E-score” value was found to be 0.0265.

In the case of CTGCACCA, the “PBM E-score” value was -0.0493.

On to CCAGGCAA, for which the “PBM E-score” value was -0.034.

On to CACGGGCA, for which the “PBM E-score” value was -0.0366. With CAGTAACC the figure was 0.144; with GGTTATCA, 0.141. For AACTTTGT the value was -0.0285; for CTTCTGGC, -0.0705. For ATTCCCCA the value was 0.0406. Turning to GCGTCACA, the “PBM E-score” value is -0.05.

Consider ACGTCGGC, for which the “PBM E-score” value was -0.148.

In the case of CCTCCAAA, the “PBM E-score” value is -0.00038. With AGTAAGAG the figure was -0.108; with CACACCGC, 0.235; with AACATAGG, 0.0129. As for TAAACTGA, the “PBM E-score” value is 0.0209. For GATTCTAA the value was -0.0226; for AAATCGGA, -0.202. On to GTCATTGA, for which the “PBM E-score” value is 0.0398. On to AAGTCCGG, for which the “PBM E-score” value was -0.179.

In the case of ACCGCACA, the “PBM E-score” value stood at 0.14. With ACCTATTC the figure was -0.0906; with AAAGGCTA, -0.0728; with AGCTGACA, 0.0633. Take AGCGGCCT: the “PBM E-score” value amounted to 0.114. For CCGTATTC the value was -0.00198; for GCTAAGTA, -0.0272; for CCTTTGCA, -0.263. With ACAAGGGA the figure was -0.219; with ACGCTCGA, -0.268. For AGTTGTAG the value was -0.126; for GCTGCGCA, 0.0463. Regarding TACGGCCA, the “PBM E-score” value is -0.127.
